Measured values: patent US20240076343A1
Blank lines part the entries; values can stand above or below the binder they belong to.

Legend:
[1] = target: high-affinity hIL-2 receptor (IL-2Rαβγ) (human) (UniProt P01589); assay: cell-based or functional assay
[2] = target: intermediate affinity hIL-2 receptor complex (IL-2Rβγ) (human) (UniProt P14784); assay: cell-based or functional assay
Sequence of UniProt P14784 (P14784 27-551, chain 1 of 2): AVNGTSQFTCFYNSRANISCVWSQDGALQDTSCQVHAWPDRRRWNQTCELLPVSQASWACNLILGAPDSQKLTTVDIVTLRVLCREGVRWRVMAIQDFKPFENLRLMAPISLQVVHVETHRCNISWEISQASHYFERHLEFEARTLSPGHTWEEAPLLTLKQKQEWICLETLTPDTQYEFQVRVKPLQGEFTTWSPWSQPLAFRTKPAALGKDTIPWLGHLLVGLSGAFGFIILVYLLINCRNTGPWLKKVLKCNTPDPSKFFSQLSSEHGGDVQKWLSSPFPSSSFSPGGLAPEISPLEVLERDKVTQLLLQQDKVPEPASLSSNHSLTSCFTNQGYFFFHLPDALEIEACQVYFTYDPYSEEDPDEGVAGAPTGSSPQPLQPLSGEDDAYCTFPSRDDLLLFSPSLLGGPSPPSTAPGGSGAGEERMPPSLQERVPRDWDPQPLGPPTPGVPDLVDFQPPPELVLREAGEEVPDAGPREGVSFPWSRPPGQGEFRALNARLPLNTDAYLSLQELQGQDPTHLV
Sequence of UniProt P14784 (chain, as listed by the source, chain 2 of 2): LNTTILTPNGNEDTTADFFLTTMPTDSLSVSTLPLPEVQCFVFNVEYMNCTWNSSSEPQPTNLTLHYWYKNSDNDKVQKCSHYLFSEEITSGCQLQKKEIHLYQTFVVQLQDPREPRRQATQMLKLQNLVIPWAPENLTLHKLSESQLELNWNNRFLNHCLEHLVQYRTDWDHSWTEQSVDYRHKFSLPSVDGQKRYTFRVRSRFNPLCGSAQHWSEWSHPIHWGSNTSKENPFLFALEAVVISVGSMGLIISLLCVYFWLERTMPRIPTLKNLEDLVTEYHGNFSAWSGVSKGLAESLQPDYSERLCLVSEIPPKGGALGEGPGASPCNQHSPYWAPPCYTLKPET

Sequence of UniProt P01589 (P01589 22-272, chain 1 of 3): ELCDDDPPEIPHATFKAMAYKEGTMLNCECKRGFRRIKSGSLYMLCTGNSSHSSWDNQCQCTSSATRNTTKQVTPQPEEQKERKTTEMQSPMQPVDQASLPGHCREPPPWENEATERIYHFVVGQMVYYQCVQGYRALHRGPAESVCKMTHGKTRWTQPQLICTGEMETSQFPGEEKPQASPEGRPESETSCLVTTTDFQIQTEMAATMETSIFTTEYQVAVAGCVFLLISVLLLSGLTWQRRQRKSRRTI
Sequence of UniProt P01589 (chain, as listed by the source, chain 2 of 3): as the sequence (P14784 27-551, chain 1 of 2) above
Sequence of UniProt P01589 (chain, as listed by the source, chain 3 of 3): as the sequence (chain, as listed by the source, chain 2 of 2) above

B1: 1H3-hIgG1-L6-hIL-2 (D20A/Y45S) (protein)
heavy: EVQLVESGGGLVQPGRSLKLSCAVSGFTFSDYAMAWVRQAPKKGLEWVATISYDGSRTYYRDSVKGRFTISRDNAKITLYLQMDSLRSEDTATYYCARHGSGYFDYWGQGVMVTVSS[not shown - about 450 residues with a human IgG1 Fc and changes]
light: DTVLTQSPALAVSPGERVTISCRASESVRTGVHWYQQKPGQQPKLLIYGASNLESGVPARFSGSGSGTDFTLTIDPVEADDTATYFCQQSWNDPFTFGSGTKLEIKRTVAAPSVFIFPPSDEQLKSGTASVVCLLNNFYPREAKVQWKVDNALQSGNSQESVTEQDSKDSTYSLSSTLTLSKADYEKHKVYACEVTHQGLSSPVTKSFNRGEC
- Fold change from hIL-2 (NK-92), pSTAT5 fixed conc. [1]: 14 fold
- Fold change from hIL-2 (TF1 + IL-2Rβ), pSTAT5 fixed conc. [2]: 3 fold

B3: 1H3-hIgG1-L6-hIL-2 (I92D/Y45D) (protein)
heavy: EVQLVESGGGLVQPGRSLKLSCAVSGFTFSDYAMAWVRQAPKKGLEWVATISYDGSRTYYRDSVKGRFTISRDNAKITLYLQMDSLRSEDTATYYCARHGSGYFDYWGQGVMVTVSS[not shown - about 450 residues with a human IgG1 Fc and changes]
light: B1 light
- Fold change from hIL-2 (NK-92), pSTAT5 fixed conc. [1]: 29 fold
- Fold change from hIL-2 (TF1 + IL-2Rβ), pSTAT5 fixed conc. [2]: 5 fold

B4: 1H3-hIgG1-L6-hIL-2 (I92D/F42L) (protein)
heavy: EVQLVESGGGLVQPGRSLKLSCAVSGFTFSDYAMAWVRQAPKKGLEWVATISYDGSRTYYRDSVKGRFTISRDNAKITLYLQMDSLRSEDTATYYCARHGSGYFDYWGQGVMVTVSS[not shown - about 450 residues with a human IgG1 Fc and changes]
light: B1 light
- Fold change from hIL-2 (NK-92), pSTAT5 fixed conc. [1]: 31 fold
- Fold change from hIL-2 (TF1 + IL-2Rβ), pSTAT5 fixed conc. [2]: 5 fold

B6: 1H3-hIgG1-L6-hIL-2 (I92D/F42G) (protein)
heavy: EVQLVESGGGLVQPGRSLKLSCAVSGFTFSDYAMAWVRQAPKKGLEWVATISYDGSRTYYRDSVKGRFTISRDNAKITLYLQMDSLRSEDTATYYCARHGSGYFDYWGQGVMVTVSS[not shown - about 450 residues with a human IgG1 Fc and changes]
light: B1 light
- Fold change from hIL-2 (NK-92), pSTAT5 fixed conc. [1]: 32 fold
- Fold change from hIL-2 (TF1 + IL-2Rβ), pSTAT5 fixed conc. [2]: 5 fold

B7: 1H3-hIgG1-L6-hIL-2 (D20A/Y45W) (protein)
heavy: EVQLVESGGGLVQPGRSLKLSCAVSGFTFSDYAMAWVRQAPKKGLEWVATISYDGSRTYYRDSVKGRFTISRDNAKITLYLQMDSLRSEDTATYYCARHGSGYFDYWGQGVMVTVSS[not shown - about 450 residues with a human IgG1 Fc and changes]
light: B1 light
- Fold change from hIL-2 (NK-92), pSTAT5 fixed conc. [1]: 19 fold
- Fold change from hIL-2 (TF1 + IL-2Rβ), pSTAT5 fixed conc. [2]: 3 fold

B9: 1H3-hIgG1-L6-hIL-2 (I92D/Y45I) (protein)
heavy: EVQLVESGGGLVQPGRSLKLSCAVSGFTFSDYAMAWVRQAPKKGLEWVATISYDGSRTYYRDSVKGRFTISRDNAKITLYLQMDSLRSEDTATYYCARHGSGYFDYWGQGVMVTVSS[not shown - about 450 residues with a human IgG1 Fc and changes]
light: B1 light
- Fold change from hIL-2 (NK-92), pSTAT5 fixed conc. [1]: 20 fold
- Fold change from hIL-2 (TF1 + IL-2Rβ), pSTAT5 fixed conc. [2]: 4 fold

B11: 1H3-hIgG1-L6-hIL-2 (I92D/F42E) (protein)
heavy: EVQLVESGGGLVQPGRSLKLSCAVSGFTFSDYAMAWVRQAPKKGLEWVATISYDGSRTYYRDSVKGRFTISRDNAKITLYLQMDSLRSEDTATYYCARHGSGYFDYWGQGVMVTVSS[not shown - about 450 residues with a human IgG1 Fc and changes]
light: B1 light
- Fold change from hIL-2 (NK-92), pSTAT5 fixed conc. [1]: 30 fold
- Fold change from hIL-2 (TF1 + IL-2Rβ), pSTAT5 fixed conc. [2]: 5 fold

The next lines start with the values.

- Fold change from hIL-2 (NK-92), pSTAT5 fixed conc. [1]: 28 fold
- Fold change from hIL-2 (TF1 + IL-2Rβ), pSTAT5 fixed conc. [2]: 5 fold
B2: 1H3-hIgG1-L6-hIL-2 (I92D/Y45V) (protein)
heavy: EVQLVESGGGLVQPGRSLKLSCAVSGFTFSDYAMAWVRQAPKKGLEWVATISYDGSRTYYRDSVKGRFTISRDNAKITLYLQMDSLRSEDTATYYCARHGSGYFDYWGQGVMVTVSS[not shown - about 450 residues with a human IgG1 Fc and changes]
light: B1 light

- Fold change from hIL-2 (NK-92), pSTAT5 fixed conc. [1]: 16 fold
- Fold change from hIL-2 (TF1 + IL-2Rβ), pSTAT5 fixed conc. [2]: 1 fold
B5: 1H3-hIgG1-L6-hIL-2 (R38E/D84E) (protein)
heavy: EVQLVESGGGLVQPGRSLKLSCAVSGFTFSDYAMAWVRQAPKKGLEWVATISYDGSRTYYRDSVKGRFTISRDNAKITLYLQMDSLRSEDTATYYCARHGSGYFDYWGQGVMVTVSS[not shown - about 450 residues with a human IgG1 Fc and changes]
light: B1 light

- Fold change from hIL-2 (NK-92), pSTAT5 fixed conc. [1]: 4 fold
- Fold change from hIL-2 (TF1 + IL-2Rβ), pSTAT5 fixed conc. [2]: 3 fold
B8: 1H3-hIgG1-L6-hIL-2 (I92D/Y45N) (protein)
heavy: EVQLVESGGGLVQPGRSLKLSCAVSGFTFSDYAMAWVRQAPKKGLEWVATISYDGSRTYYRDSVKGRFTISRDNAKITLYLQMDSLRSEDTATYYCARHGSGYFDYWGQGVMVTVSS[not shown - about 450 residues with a human IgG1 Fc and changes]
light: B1 light

- Fold change from hIL-2 (NK-92), pSTAT5 fixed conc. [1]: 18 fold
- Fold change from hIL-2 (TF1 + IL-2Rβ), pSTAT5 fixed conc. [2]: 1 fold
B10: 1H3-hIgG1-L6-hIL-2 (R38E/D84G) (protein)
heavy: EVQLVESGGGLVQPGRSLKLSCAVSGFTFSDYAMAWVRQAPKKGLEWVATISYDGSRTYYRDSVKGRFTISRDNAKITLYLQMDSLRSEDTATYYCARHGSGYFDYWGQGVMVTVSS[not shown - about 450 residues with a human IgG1 Fc and changes]
light: B1 light

- Fold change from hIL-2 (NK-92), pSTAT5 fixed conc. [1]: 21 fold
- Fold change from hIL-2 (TF1 + IL-2Rβ), pSTAT5 fixed conc. [2]: 1 fold
B12: 1H3-hIgG1-L6-hIL-2 (R38E/D84W) (protein)
heavy: EVQLVESGGGLVQPGRSLKLSCAVSGFTFSDYAMAWVRQAPKKGLEWVATISYDGSRTYYRDSVKGRFTISRDNAKITLYLQMDSLRSEDTATYYCARHGSGYFDYWGQGVMVTVSS[not shown - about 450 residues with a human IgG1 Fc and changes]
light: B1 light

- Fold change from hIL-2 (NK-92), pSTAT5 fixed conc. [1]: 18 fold
- Fold change from hIL-2 (TF1 + IL-2Rβ), pSTAT5 fixed conc. [2]: 1 fold
B13: 1H3-hIgG1-L6-hIL-2 (R38E/D84N) (protein)
heavy: EVQLVESGGGLVQPGRSLKLSCAVSGFTFSDYAMAWVRQAPKKGLEWVATISYDGSRTYYRDSVKGRFTISRDNAKITLYLQMDSLRSEDTATYYCARHGSGYFDYWGQGVMVTVSS[not shown - about 450 residues with a human IgG1 Fc and changes]
light: B1 light

- Fold change from hIL-2 (NK-92), pSTAT5 fixed conc. [1]: 21 fold
- Fold change from hIL-2 (TF1 + IL-2Rβ), pSTAT5 fixed conc. [2]: 1 fold
B14: 1H3-hIgG1-L6-hIL-2 (R38E/D84S) (protein)
heavy: EVQLVESGGGLVQPGRSLKLSCAVSGFTFSDYAMAWVRQAPKKGLEWVATISYDGSRTYYRDSVKGRFTISRDNAKITLYLQMDSLRSEDTATYYCARHGSGYFDYWGQGVMVTVSS[not shown - about 450 residues with a human IgG1 Fc and changes]
light: B1 light

- Fold change from hIL-2 (NK-92), pSTAT5 fixed conc. [1]: 5 fold
- Fold change from hIL-2 (TF1 + IL-2Rβ), pSTAT5 fixed conc. [2]: 3 fold
B15: 1H3-hIgG1-L6-hIL-2 (I92D/Y45L) (protein)
heavy: EVQLVESGGGLVQPGRSLKLSCAVSGFTFSDYAMAWVRQAPKKGLEWVATISYDGSRTYYRDSVKGRFTISRDNAKITLYLQMDSLRSEDTATYYCARHGSGYFDYWGQGVMVTVSS[not shown - about 450 residues with a human IgG1 Fc and changes]
light: B1 light

- Fold change from hIL-2 (NK-92), pSTAT5 fixed conc. [1]: 20 fold
- Fold change from hIL-2 (TF1 + IL-2Rβ), pSTAT5 fixed conc. [2]: 2 fold
B16: 1H3-hIgG1-L6-hIL-2 (R38E/D84F) (protein)
heavy: EVQLVESGGGLVQPGRSLKLSCAVSGFTFSDYAMAWVRQAPKKGLEWVATISYDGSRTYYRDSVKGRFTISRDNAKITLYLQMDSLRSEDTATYYCARHGSGYFDYWGQGVMVTVSS[not shown - about 450 residues with a human IgG1 Fc and changes]
light: B1 light

- Fold change from hIL-2 (NK-92), pSTAT5 fixed conc. [1]: 20 fold
- Fold change from hIL-2 (TF1 + IL-2Rβ), pSTAT5 fixed conc. [2]: 1 fold
B17: 1H3-hIgG1-L6-hIL-2 (R38E/D84I) (protein)
heavy: EVQLVESGGGLVQPGRSLKLSCAVSGFTFSDYAMAWVRQAPKKGLEWVATISYDGSRTYYRDSVKGRFTISRDNAKITLYLQMDSLRSEDTATYYCARHGSGYFDYWGQGVMVTVSS[not shown - about 450 residues with a human IgG1 Fc and changes]
light: B1 light
